Laboratory results reported in PubChem BioAssay AID1963576 (National Center for Advancing Translational Sciences (NCATS), 2024).
Screen size: about 46,000 compounds; about 60 (0.1%) were called active. Inconclusive results, whose numbers are uncertain, are shown with a selection of clear calls. Calls come from the whole dose curve; as a rule, active = well fitted inhibition curve with a large enough effect; inconclusive = small, poorly fitted or top-dose-only effect; inactive = no such curve, though single readings can be large or run the other way. A potency beside an inconclusive call is a rough fit, not a confirmed value.

Assay: Primary qHTS assay for Inhibitors of ovarian cancer metastasis using an organotypic tumor microenvironment (TME) model.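 For potency: count of GFP cancer cells still attached after washing and fixation.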 Note: nearly all actives have a fitted effect of over 65% in size.
Conditions: SKOV3ip1-GFP adhesion/invasion on 3D omental model, fluorescence; series mostly up to 45.8 µM
Method in brief: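 Primary human omental fibroblast/mesothelial 3D culture pre-formed 48 h. SKOV3ip1-GFP cells added with compounds (0.36-46 umol/L), incubated 2 h RT/16 h 37 C, fixed; GFP cells quantified at 488/509 nm.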
Potency is the fitted concentration of half-maximal effect; tags give direction and shape of the fitted curve.

Potency, inconclusive:
CCc1ccc(-c2nc(CN3CCCC(C(=O)N4CCN(c5cc(Cl)ccc5C)CC4)C3)c(C)o2)cc1 (centres undefined) 25.1 µM [inhibitor, single point]
COc1ccc(-c2onc(C)c2C)cc1S(=O)(=O)NCC1CCN(Cc2ccccc2F)CC1 22.4 µM [inhibitor, single point]
O=C(Cn1ncc2c([nH]c3ccccc32)c1=O)Nc1cc(F)ccc1F 22.4 µM [inhibitor, single point]
COc1c(Cl)cc(C(=O)Nc2cccc(-c3nc4ccccc4[nH]3)c2)cc1Cl 25.1 µM [inhibitor, single point]
COCCNC(=O)Cn1c(=O)n(Cc2ccc(C(=O)NCCc3ccc(OC)c(OC)c3)cc2)c(=O)c2ccccc21 2 µM [inhibitor, partial curve, poor fit]
CC(C)Cn1c(=O)c2sccc2n2c(CCCC(=O)NCC(C)c3ccccc3)nnc12 (centres undefined) 0.562 µM [inhibitor, full curve, poor fit]
Cc1cccc(CSc2nc3cccnc3n2Cc2ccc(C(=O)NCc3cccs3)cc2)c1 35.5 µM [inhibitor, single point]
Cc1nnc(N2CCCC(C(=O)Nc3ccccc3C(F)(F)F)C2)c2nn(-c3ccccc3)c(C)c12 (centres undefined) 35.5 µM [inhibitor, single point]
CCc1ccc(Oc2nc3c(C)cccn3c(=O)c2/C=C(\C#N)c2nc3ccccc3[nH]2)cc1 35.5 µM [inhibitor, single point]
CCn1c(=O)c2cc(C(=O)N3CCN(c4cccc(Cl)c4)CC3)sc2c2ccccc21 12.6 µM [inhibitor, single point]
COc1cc(Cl)c(C)cc1NC(=O)c1cc(CN2CCOCC2)on1 35.5 µM [inhibitor, single point]
Cc1ccccc1-n1c2nc(=O)[nH]c(=O)c-2cc2c(Cl)cccc21 35.5 µM [inhibitor, single point]
COc1ccc(CNC(=O)C2CCN(c3nnc(C)c4c(C)n(-c5ccc(C)cc5)nc34)CC2)cc1 25.1 µM [inhibitor, single point]
COc1ccc(C(C)=O)cc1CSc1nc(NCc2ccc(Cl)cc2)c2ccccc2n1 3.55 µM [inhibitor, full curve, poor fit]
Cc1ccc(CSc2nc3cccnc3n2Cc2nc(-c3ccccc3F)oc2C)cc1 2.82 µM [inhibitor, full curve, poor fit]
O=C(Cn1c(SCC(=O)Nc2ccc(F)cc2)nc2ccccc21)NCc1ccc(Cl)cc1 20 µM [inhibitor, single point]
CCc1ccccc1NC(=O)Nc1cc(C(=O)NCc2ccccc2OC)ccc1N1CCCC1 35.5 µM [inhibitor, single point]
Cc1ccc(Cl)cc1NC(=O)CSCc1cnn(-c2ccccc2)c1-n1cccc1 35.5 µM [inhibitor, single point]
COc1ccccc1-c1nnc(C2CCN(S(=O)(=O)c3ccc(CC(C)C)cc3)CC2)o1 35.5 µM [inhibitor, single point]
Cc1ccc(N(CC(O)Cn2c3ccccc3c3ccccc32)S(=O)(=O)c2ccc(F)cc2)cc1 (centres undefined) 35.5 µM [inhibitor, single point]
COc1ccc(CNCCC(c2ccc(C)cc2)c2ccco2)cc1 (centres undefined) 35.5 µM [inhibitor, partial curve, poor fit]
CCc1ccc(-n2c(SCc3ccccc3Cl)nc3[nH]ncc3c2=O)cc1 22.4 µM [inhibitor, single point]
CCn1c(CN2CCC(C)CC2)nc2cc(NC(=O)COc3ccc(Cl)c(C)c3)ccc21 35.5 µM [inhibitor, partial curve, poor fit]
COc1ccc(C)cc1NS(=O)(=O)c1c(C(=O)N2CCCCCC2)c(C)n(C)c1C 4.47 µM [inhibitor, full curve]
CCn1c(=N)n(CCOc2ccc(Br)cc2)c2ccccc21 3.55 µM [inhibitor, full curve, poor fit]
Cc1cccc(OCC(=O)Nc2ccc(-c3nc4ccccc4o3)cc2)c1C 35.5 µM [inhibitor, single point]
COc1ccc(CNCCC(c2ccc3c(c2)OCO3)c2ccccc2OC)cc1 (centres undefined) 35.5 µM [inhibitor, single point]
COC(=O)Nc1ccc(-c2nc(N3CCOCC3)c3cnn(C4CCN(Cc5cccnc5)CC4)c3n2)cc1 16.6 µM [inhibitor, partial curve, poor fit]
O=C(CN1C(=O)c2cccnc2Oc2ccc(Cl)cc21)NCCc1ccccc1 31.6 µM [inhibitor, partial curve, poor fit]
COc1cccc(C(=O)N(Cc2ccc(N(C)C)cc2)Cc2ccco2)c1 22.4 µM [inhibitor, single point]
CCOc1cc(CNCCSc2nnnn2C)ccc1OCc1ccc(Cl)cc1Cl 12.6 µM [inhibitor, single point]
COc1ccccc1-c1cc(C(F)(F)F)nc(S(=O)(=O)CCCC(=O)Nc2ccccc2F)n1 2.51 µM [inhibitor, full curve]
COc1ccc(Cn2c(SCc3ccc(C(=O)NC4CCCCC4)cc3)nc3cccnc32)cc1 10 µM [inhibitor, partial curve]
COC(=O)c1ccccc1NC(=O)c1cc2ccccn2n1 35.5 µM [inhibitor, single point]
Brc1ccc(CNCCCSc2nnnn2-c2ccccc2)cc1 17.8 µM [inhibitor, single point]
CN1C(=O)c2ccccc2Sc2ccc(NC(=O)Cc3c(F)cccc3Cl)cc21 35.5 µM [inhibitor, single point]
CC(=O)c1cccc(N(C(=O)Cn2nnc3ccccc32)C(C(=O)NCc2ccccc2)c2ccc(F)cc2)c1 (centres undefined) 22.4 µM [inhibitor, single point]
Nc1c(-c2nc(-c3ccccc3)cs2)c2ccccn2c1C(=O)c1ccc2c(c1)OCO2 3.55 µM [inhibitor, full curve]
O=C(Nc1ccc2nc(SCC(=O)N3CCCc4ccccc43)sc2c1)c1cccc(Cl)c1 35.5 µM [inhibitor, single point]
Cc1ccccc1CN1C(=O)C(O)(CC(=O)c2ccccc2)c2cc(Cl)ccc21 (centres undefined) 14.1 µM [inhibitor, single point]
Cc1ccc(C(=O)Nc2nc3nc(C)cc(=O)n3[nH]2)cc1 35.5 µM [inhibitor, single point]
CCCCN(C)CCNC(=O)C1CCN(c2nc3ccc(CC)cc3s2)CC1 25.1 µM [inhibitor, single point]
COc1ccc(C(c2c(O)cc(C)n(Cc3ccco3)c2=O)N2CCN(c3ccccc3)CC2)cc1 (centres undefined) 11.2 µM [inhibitor, partial curve, poor fit]

Potency, inactive:
Cc1cc(C)c(S(=O)(=O)Nc2cc(-c3cn4ccccc4n3)ccc2C)cc1C
CCc1nnc(SCC(=O)N(C)c2ccccc2)c2cc3sccc3n12
Cc1ccc2nc(-c3ccc(Cl)c(NC(=O)c4cccnc4)c3)oc2c1
O=S(=O)(NCC(c1ccco1)S(=O)(=O)c1cccs1)c1ccc(F)c(C(F)(F)F)c1 (centres undefined)
COc1cc(OC)c(N(C)C(=O)CSc2c3c(nc4ccc(Cl)cc24)CCCC3)cc1Cl
CC(C)c1cnc2c(c1SCC(=O)Nc1ccc(C(N)=O)cc1)c(=O)n(C)c(=O)n2C
CCN(C(=O)c1cn(C)c(=O)c2ccccc12)c1cccc(C)c1
COc1ccccc1NC(=O)CN1C(=O)CCSc2ccccc21
COc1cccc(NC(=O)Cn2c(=O)n(-c3ccccc3)c(=O)c3ccc(C(=O)NCc4ccc5c(c4)OCO5)cc32)c1
Cn1cc(C(=O)O)c(=O)c2cc(S(=O)(=O)N3CCOCC3)ccc21
CCCNC(=O)Cn1nc(-c2ccc(C)c(C)c2)c2cnc3ccc(OC)cc3c21
CN(Cc1ccccc1)c1ccc(-c2nc(-c3ccccn3)no2)cc1[N+](=O)[O-]
Cc1cc(S(=O)(=O)NCC(c2ccco2)S(=O)(=O)c2cccs2)ccc1F (centres undefined)
COc1ccc(CNC(=O)Nc2ccc3c(c2)N(C)C(=O)c2ccccc2S3)cc1OC
Cc1ccc(NC(=O)CN2C(=O)COc3ccc(S(=O)(=O)N4CCCCC4)cc32)cc1Cl
COc1ccc(C(=O)NCC(c2cccs2)S(=O)(=O)c2ccc(F)c(C)c2)cc1 (centres undefined)
CC(=O)N(Cc1cccnc1)c1nc2ccc(F)cc2s1
C#CCn1c(/C=C/c2ccc(Cl)cc2)nc2ccccc21
CCOC(=O)c1ccc(NC(=O)Nc2ccc3snnc3c2)cc1
CCCSc1ncc(Cl)c(C(=O)Nc2sc3c(c2C(=O)NCC)CCCC3)n1
COc1cccc(-c2nnc3n(Cc4ccc(C)cc4)c(=O)c4ccccc4n23)c1O
